According to PubChem BioAssay AID624417 (National Center for Advancing Translational Sciences (NCATS), 2012):
Among all 410,000 compounds or so, about 6,400 (1.6%) were called active. The shares of active, inactive and inconclusive entries below differ from those in the screen. Calls follow the shape of the dose curve; as a rule, active = well fitted inhibition curve with a large enough effect; inconclusive = small, poorly fitted or top-dose-only effect; inactive = no such curve, though single readings can be large or run the other way. Potencies of inconclusive entries are left out as doubtful fits.

target: Glucagon-like peptide 1 receptor (Homo sapiens) (UniProt P43220); test: qHTS of GLP-1 Receptor Inverse Agonists (Inhibition Mode); conditions: HEK293 GLP-1R CRE-luciferase, luminescence, 24 h, GLP-1R form is constitutively active; activity change, negative = inhibition: at 38.3 µM (top of the series) unless noted; also: nearly all actives have a fitted effect of over 55% in size
Summary of the method: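 Constitutively active GLP-1R drives a cAMP-responsive luciferase in stably transfected HEK293 cells; test compounds are added after overnight (12 h) attachment and left 24 hr, and signal loss in luminescence marks inhibition.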
% is scaled to controls: 0 for no effect and ±100 for the full control effect; potency is read from the fitted curve at half-maximal effect; tags tell the direction and shape of the fitted curve.

UniProt P43220, sequence (P43220 whole entry, looked up): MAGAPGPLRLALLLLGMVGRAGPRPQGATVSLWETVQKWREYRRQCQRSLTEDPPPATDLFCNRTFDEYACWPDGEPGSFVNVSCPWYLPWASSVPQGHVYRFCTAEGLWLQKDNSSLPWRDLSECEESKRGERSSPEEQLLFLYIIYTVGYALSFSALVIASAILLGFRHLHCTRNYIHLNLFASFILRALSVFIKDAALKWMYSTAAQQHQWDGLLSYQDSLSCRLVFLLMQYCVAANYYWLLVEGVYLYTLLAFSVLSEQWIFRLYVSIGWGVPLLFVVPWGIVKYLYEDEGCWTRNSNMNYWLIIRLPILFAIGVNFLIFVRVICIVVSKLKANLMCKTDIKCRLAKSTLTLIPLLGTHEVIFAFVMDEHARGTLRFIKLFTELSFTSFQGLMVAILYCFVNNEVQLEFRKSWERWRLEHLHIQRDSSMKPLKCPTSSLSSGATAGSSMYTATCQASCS

Row | SMILES | Potency | activity change, negative = inhibition
1 | CN(CC(=O)Nc1ccc(Cl)c(C(F)(F)F)c1)C(=O)CC1Sc2ccccc2NC1=O (stereo not drawn) | inconclusive [inhibitor, partial curve, poor fit] | 
2 | Cc1ccc(C)c(CN2CCC(n3nccc3NC(=O)CCCc3ccccc3)CC2)c1 | inconclusive [inhibitor, partial curve, poor fit] | 
3 | CCOC(=O)C1=NN(c2ccccc2C)C2=NC(C)=C(C(=O)OC)C(c3cccs3)N12 (stereo not drawn) | inconclusive [inhibitor, partial curve] | 
4 | COc1ccc(NC(=O)O/N=C2/CCCc3ccc(OC)cc32)cc1 | inconclusive [inhibitor, partial curve] | 
5 | O=C(CCNS(=O)(=O)c1ccc(OC(F)(F)F)cc1)NCCc1c[nH]c2ccccc12 | inconclusive [inhibitor, partial curve, poor fit] | 
6 | CCOC(=O)C1=C(C)NC(C)=C(C(=O)OCC)C1c1ccc(C)o1 | inconclusive [inhibitor, single point] | 
7 | COc1ccc(/C=C/C(=O)NC(=S)NNC(=O)c2cccs2)cc1 | inconclusive [inhibitor, partial curve] | 
8 | CC(C)CC1C(=O)N(Cc2cn(Cc3ccco3)nn2)CCS(=O)(=O)N1Cc1ccc(-c2cccc(CO)c2)cc1 (stereo not drawn) | inconclusive [inhibitor, single point] | 
9 | CCOC(=O)/C=C1/SCC(=O)N1CC(=O)NC12CC3CC(CC(C3)C1)C2 | inconclusive [inhibitor, single point] | 
10 | Fc1ccc(Nc2ccc3ccccc3n2)c(F)c1 | inconclusive [inhibitor, single point] | 
11 | CC(Oc1ccc(F)cc1)C(=O)Nc1sc2c(c1C(=O)NCc1cccnc1)CCCC2 (stereo not drawn) | active: 10 µM | 
12 | CCCCC(=O)Nc1cccc(NC(=O)c2cccc([N+](=O)[O-])c2)c1 | inconclusive [inhibitor, partial curve, poor fit] | 
13 | O=C(NCC1CCCO1)c1cc(Br)c(Br)s1 (stereo not drawn) | inconclusive [inhibitor, single point] | 
14 | CN(C)S(=O)(=O)c1ccc(N2CCCC2)c(C(=O)Nc2nc3c(ccc4ccccc43)s2)c1 |  | inactive: -2.49%
15 | COc1ccc(Cl)c2sc(N3CCN(C(=O)C4=COCCO4)CC3)nc12 | inconclusive [inhibitor, single point] | 
16 | CCc1cccc2sc(N3CCN(C(=O)c4ccc([N+](=O)[O-])o4)CC3)nc12 | inconclusive [inhibitor, single point] | 
17 | CCOC(=O)N1CCN(Cc2nc3c(c(=O)n(C)c(=O)n3C)n2Cc2cccc3ccccc23)CC1 | inconclusive [inhibitor, single point] | 
18 | COCCN(Cc1cccs1)S(=O)(=O)c1cc(-c2cc(C)no2)ccc1C | inconclusive [inhibitor, single point] | 
19 | O=C(c1ccc(Cl)c(S(=O)(=O)N2CCCCC2)c1)N1CCN(c2ccccc2)CC1 | inconclusive [inhibitor, partial curve, poor fit] | 
20 | O=Cc1cc([N+](=O)[O-])ccc1N1CCN(Cc2ccc3c(c2)OCO3)CC1 | inconclusive [inhibitor, single point] | 
21 | COc1cccc(CNC(=O)CCS(=O)(=O)c2ccc3c(c2)oc(=O)n3C)c1 | inactive | 

Row | SMILES | Potency | activity change, negative = inhibition
22 | COCCCNC(=O)c1c(NC(=O)Cc2coc3c(C)c(C)ccc23)sc2c1CCCC2 |  | inactive: 3.86%
23 | CN(Cc1ccc(Cl)cc1Cl)C(=O)CNC(=O)c1ccc2c(c1)OCO2 | inconclusive [inhibitor, single point] | 
24 | Cc1c2cnn(CC(=O)NCc3ccc(F)cc3)c(=O)c2c(C)n1Cc1cccc(Cl)c1 | inconclusive [inhibitor, single point] | 
25 | COc1ccsc1C(=O)N1CCN(Cc2ccc3c(c2)OCO3)CC1 |  | inactive: 1.91%
26 | O=C(Cn1c(-c2ccccc2)c[n+]2ccsc12)c1ccc([N+](=O)[O-])cc1 | inconclusive [inhibitor, single point] | 
27 | COc1ccccc1NC(=O)c1ccc(CSc2ccccc2)o1 | inconclusive [inhibitor, single point] | 
28 | CC(C)C[C@@H](CSc1ccc(Br)cc1)N1CCN(C)CCC1=O | inconclusive [inhibitor, single point] | 
29 | COc1ccc(NC(c2nnc(-c3ccccc3)o2)c2ccccc2F)cc1Cl (stereo not drawn) | inconclusive [inhibitor, single point] | 
30 | CCCCN(CC)CCCNC(=O)CS(=O)(=O)Cc1nc(-c2ccc(C)cc2)oc1C | inconclusive [inhibitor, single point] | 
31 | FC(F)(F)c1cccc(NC(=S)NCc2ccccn2)c1 | inconclusive [inhibitor, single point] | 
32 | CCOc1ccc(CCNC(=O)C2CCN(C(=O)N3CC(CC)Oc4ccccc43)CC2)cc1 (stereo not drawn) |  | inactive: 9.29%
33 | CCOc1ccc(S(=O)(=O)N2CCC(C(=O)N3CCN(c4ccccc4F)CC3)CC2)cc1C | active: 5.62 µM | 
34 | CCOC(=O)c1c(C)[nH]c(C(=O)CN2C(=O)NC(C)(c3ccc(C)cc3)C2=O)c1C (stereo not drawn) | inconclusive [inhibitor, partial curve] | 
35 | Cc1cc(C)cc(OCC(=O)Nc2nc3c(s2)CC(C(C)(C)C)CC3)c1 (stereo not drawn) | inconclusive [inhibitor, partial curve, poor fit] | 
36 | Cc1ccc(CNC(=O)CC2(CC3=NS(=O)(=O)c4ccccc4N3)CCCC2)cc1 | inconclusive [inhibitor, full curve] | 
37 | COc1ccccc1C/C(N)=N/OC(=O)c1cccc([N+](=O)[O-])c1 | inconclusive [inhibitor, single point] | 
38 | Cc1cccc(NC(=S)NC(C)(C)CC(C)(C)C)c1 | active: 10 µM | 
39 | COc1cc(S(=O)(=O)NCCOC23CC4CC(CC(C4)C2)C3)c(OC)cc1Cl |  | inactive: 0.0349%
40 | COc1ccc(OC)c2sc(NC(=O)c3ccc(S(=O)(=O)N4CCCC4)cc3)nc12 |  | inactive: 11.6%
41 | Cc1cccc(-n2ncc(C(=O)N3CCN(C4CCCCC4)CC3)c2C2CCN(C(=O)OC(C)(C)C)CC2)c1 |  | inactive: -4.94%
42 | NC(=O)C1(Nc2ccc(-c3ccccc3)cc2)CCCC1 | inconclusive [inhibitor, single point] | 

Row | SMILES | Potency | activity change, negative = inhibition
43 | CCOC(=O)C1CCCN(C(=O)c2cc3nc(-c4ccc5c(c4)OCO5)cc(C(F)(F)F)n3n2)C1 (stereo not drawn) |  | inactive: 108%
44 | Cc1cccc(NC(=S)NC(=O)CC2CC(C)(C)OC2=O)c1 (stereo not drawn) |  | inactive: 9.19%
45 | O=C(CCNC(=O)c1ccccc1Cl)Nc1nc2ccc(F)cc2s1 | inconclusive [inhibitor, single point] | 
46 | C=CCNC(=O)c1onc(CSc2cc(C)cc(C)c2)c1C(=O)O | inconclusive [inhibitor, single point] | 
47 | S=c1[nH]nc(C2CCCCC2)n1/N=C/c1ccccc1Cl |  | inconclusive: -46.3% [inhibitor]
48 | Cc1ccc(C(=O)c2cc([N+](=O)[O-])ccc2N2CC(C)OC(C)C2)cc1 (stereo not drawn) | inconclusive [inhibitor, partial curve, poor fit] | 
49 | CCOc1ccccc1N1CCN(c2ncnc3scc(-c4ccc(OC)cc4)c23)CC1 | inconclusive [inhibitor, single point] | 
50 | COC(=O)c1ccc(CSc2nc(-c3ccco3)cc(C(F)(F)F)n2)o1 | inconclusive [inhibitor, partial curve, poor fit] | 
51 | COc1ccc(Br)cc1C(=O)Nc1ccccc1-c1ccccc1 | inconclusive [inhibitor, single point] | 
52 | CCn1c2ccccc2c2cc(NC(=O)c3cccc([N+](=O)[O-])c3)ccc21 | inconclusive [inhibitor, full curve] | 
53 | CC(C)CNS(=O)(=O)c1ccc(CCC(=O)N2CCN(Cc3ccc4c(c3)OCO4)CC2)cc1 | inconclusive [inhibitor, partial curve, poor fit] | 
54 | Nc1ccccc1SSc1ccccc1N | inconclusive [inhibitor, single point] | 
55 | CCc1nnc(NC(=O)c2nc(S(=O)(=O)Cc3ccc(C)cc3)ncc2Cl)s1 | inconclusive [inhibitor, single point] | 
56 | CN1CCCC(OC(=O)c2ccc(C#N)cc2)C1 (stereo not drawn) |  | inactive: 1.71%
57 | CN(CC(=O)Nc1ccc(Br)cc1)Cc1ccccc1 | inconclusive [inhibitor, single point] | 
58 | Cc1ccc(NC(=O)c2cc(S(=O)(=O)N(C)C3CCCCC3)ccc2F)cc1C | inconclusive [inhibitor, single point] | 
59 | CCN(c1cccc(C)c1)S(=O)(=O)c1ccc(N2CCCCS2(=O)=O)cc1 | inconclusive [inhibitor, single point] | 
60 | O=C(Nc1ccc(C(=O)N2CCN(c3cccc(Cl)c3)CC2)cc1)c1nsc2ccccc12 | inconclusive [inhibitor, single point] | 
61 | Cc1ccc(CNC(=O)CCC2CCCN(Cc3cc4ccccc4o3)C2)o1 (stereo not drawn) | inconclusive [inhibitor, single point] | 
62 | COc1ccccc1C1CCCN1Cc1nc(-c2cc3c(cc2Cl)OCO3)oc1C (stereo not drawn) | inconclusive [inhibitor, partial curve, poor fit] | 
63 | Cc1ccc(C)c(OCC(=O)Nc2cccc(S(=O)(=O)NC3=NCCCCC3)c2)c1 | inconclusive [inhibitor, partial curve, poor fit] | 
